Several values for one entry are separate records, joined by “and”; a condition that tells them apart may be missing. Identical values can stand only once. The source gives many values for each of these; only a part stands here.
Assays:
[1] = xn = mol fraction of the nth substance listed; details: 101.33 kPa

CC[n+]1ccn(C)c1.N#C[N-]C#N
viscosity [mPa·s]
Details	293.15 K	303.15 K	308.15 K	313.15 K	318.15 K	323.15 K
100 kPa	–	–	11.05	9.76	8.69	–
101 kPa	17.41	12.96	–	10.05	–	8.277

CN[C@@H]1[C@H](O[C@H]2[C@H](O[C@H]3[C@H](O)[C@@H](O)[C@H](NC(=N)N)[C@@H](O)[C@@H]3NC(=N)N)O[C@@H](C)[C@]2(O)C=O)O[C@@H](CO)[C@H](O)[C@H]1O.CN[C@@H]1[C@H](O[C@H]2[C@H](O[C@H]3[C@H](O)[C@@H](O)[C@H](NC(=N)N)[C@@H](O)[C@@H]3NC(=N)N)O[C@@H](C)[C@]2(O)C=O)O[C@@H](CO)[C@H](O)[C@H]1O.O=S(=O)(O)O.O=S(=O)(O)O.O=S(=O)(O)O + O
viscosity, [1]
Details	x1 = 5e-07	x1 = 7e-07	x1 = 9e-07	x1 = 1e-06	x1 = 1.8e-06	x1 = 2e-06	x1 = 2.2e-06
298.15 K	0.8956 mPa·s	–	–	–	–	–	–
308.15 K	0.7227 mPa·s	0.7234 mPa·s	0.7241 mPa·s	0.7249 mPa·s and 0.7256 mPa·s and 0.7264 mPa·s	0.7294 mPa·s	0.7271 mPa·s and 0.7302 mPa·s	0.7308 mPa·s
313.15 K	0.6555 mPa·s	0.656 mPa·s	0.6567 mPa·s	0.6574 mPa·s and 0.6581 mPa·s and 0.6588 mPa·s	0.6602 mPa·s	0.6595 mPa·s and 0.6626 mPa·s	0.6632 mPa·s

O
Details	viscosity
293.15 K, 101 kPa	1.026 mPa·s
294.55 K, 101.33 kPa	0.968 mPa·s
295.1 K, 101.32 kPa	0.9532 mPa·s
298.15 K, 101 kPa	0.997 mPa·s and 0.8756 mPa·s
298.15 K, 101.33 kPa	0.877 mPa·s and 0.8893 mPa·s
300.12 K, 101.33 kPa	0.853 mPa·s
300.2 K, 101 kPa	0.91 mPa·s
301.15 K, 101 kPa	0.8325 mPa·s
301.15 K, 101.32 kPa	0.8206 mPa·s
302.15 K, 101 kPa	0.8143 mPa·s and 0.8148 mPa·s
302.35 K, 101 kPa	0.807 mPa·s
303.15 K, 100 kPa	0.86 mPa·s and 0.856 mPa·s and 0.79 mPa·s
303.15 K, 101.3 kPa	0.803 mPa·s and 0.754 mPa·s
303.15 K, 101.33 kPa	0.8075 mPa·s and 0.8121 mPa·s and 0.794 mPa·s
304.15 K, 101.32 kPa	0.7594 mPa·s
304.15 K, 101.33 kPa	0.778 mPa·s
306.15 K, 101 kPa	0.7491 mPa·s
306.99 K, 101.33 kPa	0.73 mPa·s
307.15 K, 101.32 kPa	0.7095 mPa·s
308.15 K, 101 kPa	0.7167 mPa·s and 0.729 mPa·s
308.15 K, 101.3 kPa	0.734 mPa·s and 0.734 mPa·s
308.15 K, 101.33 kPa	0.716 mPa·s and 0.6922 mPa·s and 0.717 mPa·s
309.15 K, 101 kPa	0.7045 mPa·s
310.15 K, 101 kPa	0.6947 mPa·s
310.15 K, 101.32 kPa	0.662 mPa·s
311.15 K, 101 kPa	0.6784 mPa·s
313.15 K, 100 kPa	0.6882 mPa·s and 0.657 mPa·s and 0.658 mPa·s
313.15 K, 101.3 kPa	0.619 mPa·s and 0.619 mPa·s and 0.624 mPa·s
313.15 K, 101.32 kPa	0.6237 mPa·s
313.15 K, 101.33 kPa	0.666 mPa·s and 0.6382 mPa·s
313.85 K, 101.33 kPa	0.657 mPa·s
315.15 K, 101 kPa	0.6279 mPa·s
318.15 K, 100 kPa	0.591 mPa·s and 0.6 mPa·s
318.15 K, 101.3 kPa	0.591 mPa·s and 0.587 mPa·s
318.15 K, 101.33 kPa	0.5862 mPa·s and 0.594 mPa·s
323.05 K, 101.33 kPa	0.5529 mPa·s
323.15 K, 100 kPa	0.5831 mPa·s and 0.539 mPa·s
323.15 K, 101 kPa	0.571 mPa·s and 0.556 mPa·s
323.15 K, 101.3 kPa	0.553 mPa·s and 0.556 mPa·s
323.15 K, 101.33 kPa	0.558 mPa·s
